Data as given in the supplement of paper PMC4604168 (melanoma cell lines).
The other results are listed elsewhere or left out. Many values rest on one well or one pass, so single values are uncertain.

What was measured:
Assay in all cases: cell count relative to DMSO control; melanoma cells; higher = more viable cells
Conditions in all cases: library dose: low library concentration; 72 h
MZ2-MEL = tested on: MZ2-MEL
MeWo = tested on: MeWo
RPMI7951 = tested on: RPMI7951
RVH-421 = tested on: RVH-421
SkMel28 = tested on: SkMel28
SkMel2 = tested on: SkMel2
SkMel30 = tested on: SkMel30
UACC62 = tested on: UACC62
WM115 = tested on: WM115
WM1716 = tested on: WM1716
WM1745 = tested on: WM1745
WM3526 = tested on: WM3526
WM3619 = tested on: WM3619
WM451Lu = tested on: WM451Lu
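Further: cell number obtained by counting DAPI-stained nuclei in high-throughput microscope images with image analysis software, screen run in 1,536-well plates.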

For `CCN(CC)CCNC(=O)c1c(C)[nH]c(/C=C2\C(=O)Nc3ccc(F)cc32)c1C` [sunitinib] + CCCCCCCCc1ccc(CCC(N)(CO)CO)cc1 [fingolimod] (first compound 0.4 µM, partner dose 2 µM), the cell count (MZ2-MEL) was 98.8%, the cell count (MeWo) was 67.9% and the cell count (RPMI7951) was 88.7%. For the same compound, the cell count (RVH-421) was 108%, the cell count (SkMel28) was 77.8% and the cell count (SkMel2) was 105%. The cell count (SkMel30) was 71.4%, the cell count (UACC62) was 92% and the cell count (WM115) was 99.2%. It also gave a cell count (WM1716) of 120%, a cell count (WM1745) of 60.9% and a cell count (WM3526) of 61.1%. It also gave a cell count (WM3619) of 97.6% and a cell count (WM451Lu) of 103%.
In the case of `Cn1cnc2c(F)c(Nc3ccc(Br)cc3Cl)c(C(=O)NOCCO)cc21` [selumetinib] + Clc1ccc(Nc2nnc(Cc3ccncc3)c3ccccc23)cc1 [vatalanib] (first compound 0.015 µM, partner dose 2 µM), the cell count (MZ2-MEL) was 108%, the cell count (MeWo) was 71.5% and the cell count (RPMI7951) was 93.8%. The cell count (RVH-421) was 85.2%, the cell count (SkMel28) was 91% and the cell count (SkMel2) was 78%. For the same compound, the cell count (SkMel30) was 90.3%, the cell count (UACC62) was 68% and the cell count (WM115) was 90.9%. It also gave a cell count (WM1716) of 99.4%, a cell count (WM1745) of 102% and a cell count (WM3526) of 79.3%. It also gave a cell count (WM3619) of 97% and a cell count (WM451Lu) of 110%.
`COc1cc([C@@H]2c3cc4c(cc3[C@@H](O[C@@H]3O[C@@H]5CO[C@@H](C)O[C@H]5[C@H](O)[C@H]3O)[C@H]3COC(=O)[C@H]23)OCO4)cc(OC)c1O` [etoposide] + CCCCCCCCc1ccc(CCC(N)(CO)CO)cc1 [fingolimod] (first compound 0.02 µM, partner dose 2 µM) showed a cell count (MZ2-MEL) of 86.9%, a cell count (MeWo) of 83.1% and a cell count (RPMI7951) of 80.3%. It also gave a cell count (RVH-421) of 75.7%, a cell count (SkMel28) of 79.5% and a cell count (SkMel2) of 91.9%. The cell count (SkMel30) was 95.1%, the cell count (UACC62) was 59.7% and the cell count (WM115) was 80.7%. For the same compound, the cell count (WM1716) was 64.8%, the cell count (WM1745) was 75.1% and the cell count (WM3526) was 78.8%. For the same compound, the cell count (WM3619) was 65.2% and the cell count (WM451Lu) was 91.2%.
`COc1cc([C@@H]2c3cc4c(cc3[C@@H](O[C@@H]3O[C@@H]5CO[C@@H](C)O[C@H]5[C@H](O)[C@H]3O)[C@H]3COC(=O)[C@H]23)OCO4)cc(OC)c1O` [etoposide] + CS(=O)(=O)c1ccc(C(=O)Nc2ccc(Cl)c(-c3ccccn3)c2)c(Cl)c1 [vismodegib] (first compound 0.02 µM, partner dose 1 µM) showed a cell count (MZ2-MEL) of 80%, a cell count (MeWo) of 103% and a cell count (RPMI7951) of 105%. It also gave a cell count (RVH-421) of 127%, a cell count (SkMel28) of 101% and a cell count (SkMel2) of 86.8%. The cell count (SkMel30) was 110%, the cell count (UACC62) was 76.6% and the cell count (WM115) was 91.3%. The cell count (WM1716) was 95.4%, the cell count (WM1745) was 121% and the cell count (WM3526) was 86.5%. The cell count (WM3619) was 114% and the cell count (WM451Lu) was 88.1%.
For `Cn1cnc2c(F)c(Nc3ccc(Br)cc3Cl)c(C(=O)NOCCO)cc21` [selumetinib] + CC(=O)c1c(C)c2cnc(Nc3ccc(N4CCNCC4)cn3)nc2n(C2CCCC2)c1=O [palbociclib] (first compound 0.015 µM, partner dose 0.04 µM), the cell count (MZ2-MEL) was 66.6%, the cell count (MeWo) was 73% and the cell count (RPMI7951) was 67.4%. It also gave a cell count (RVH-421) of 68.7%, a cell count (SkMel28) of 81.1% and a cell count (SkMel2) of 64.8%. For the same compound, the cell count (SkMel30) was 29.5%, the cell count (UACC62) was 71.2% and the cell count (WM115) was 68.9%. It also gave a cell count (WM1716) of 72.3%, a cell count (WM1745) of 72.6% and a cell count (WM3526) of 68.2%. For the same compound, the cell count (WM3619) was 85.7% and the cell count (WM451Lu) was 77.2%.
Work on `C[C@]1(O)C[C@@H](c2nc(-c3ccc4ccc(-c5ccccc5)nc4c3)c3c(N)nccn32)C1` + COCC[n+]1c2c(n(Cc3cnccn3)c1C)C(=O)c1ccccc1C2=O [YM155] (first compound 0.4 µM, partner dose 0.0004 µM) yielded a cell count (MZ2-MEL) of 65.8%, a cell count (MeWo) of 93.2% and a cell count (RPMI7951) of 83.9%. The cell count (RVH-421) was 105%, the cell count (SkMel28) was 96.4% and the cell count (SkMel2) was 87%. For the same compound, the cell count (SkMel30) was 101%, the cell count (UACC62) was 90.8% and the cell count (WM115) was 106%. It also gave a cell count (WM1716) of 107%, a cell count (WM1745) of 64% and a cell count (WM3526) of 92.2%. The cell count (WM3619) was 99.6% and the cell count (WM451Lu) was 70%.
Compound `C[C@]1(O)C[C@@H](c2nc(-c3ccc4ccc(-c5ccccc5)nc4c3)c3c(N)nccn32)C1` + OCc1c[nH]c2ccccc12 [Indole-3-carbinol] (first compound 0.4 µM, partner dose 0.8 µM) has a cell count (MZ2-MEL) of 92.7%, a cell count (MeWo) of 86.1% and a cell count (RPMI7951) of 84.2%. It also gave a cell count (RVH-421) of 98.6%, a cell count (SkMel28) of 88.3% and a cell count (SkMel2) of 85.8%. For the same compound, the cell count (SkMel30) was 106%, the cell count (UACC62) was 81.5% and the cell count (WM115) was 111%. It also gave a cell count (WM1716) of 104%, a cell count (WM1745) of 76.2% and a cell count (WM3526) of 83.8%. For the same compound, the cell count (WM3619) was 97.4% and the cell count (WM451Lu) was 93.1%.
In the case of `C[C@]1(O)C[C@@H](c2nc(-c3ccc4ccc(-c5ccccc5)nc4c3)c3c(N)nccn32)C1` + Clc1ccc(Nc2nnc(Cc3ccncc3)c3ccccc23)cc1 [vatalanib] (first compound 0.4 µM, partner dose 2 µM), the cell count (MZ2-MEL) was 94.1%, the cell count (MeWo) was 71.2% and the cell count (RPMI7951) was 94.4%. For the same compound, the cell count (RVH-421) was 89.7%, the cell count (SkMel28) was 96% and the cell count (SkMel2) was 82.6%. It also gave a cell count (SkMel30) of 98.9%, a cell count (UACC62) of 93.4% and a cell count (WM115) of 104%. For the same compound, the cell count (WM1716) was 96.2%, the cell count (WM1745) was 79.5% and the cell count (WM3526) was 96.2%. For the same compound, the cell count (WM3619) was 94.5% and the cell count (WM451Lu) was 113%.
Compound `Cn1cnc2c(F)c(Nc3ccc(Br)cc3Cl)c(C(=O)NOCCO)cc21` [selumetinib] + Cn1c(Nc2ccc(C(F)(F)F)cc2)nc2cc(Oc3ccnc(-c4ncc(C(F)(F)F)[nH]4)c3)ccc21 [CHIR265] (first compound 0.015 µM, partner dose 0.08 µM) has a cell count (MZ2-MEL) of 81.6%, a cell count (MeWo) of 60.3% and a cell count (RPMI7951) of 72.6%. For the same compound, the cell count (RVH-421) was 54%, the cell count (SkMel28) was 56.5% and the cell count (SkMel2) was 49.1%. For the same compound, the cell count (SkMel30) was 43.3%, the cell count (UACC62) was 41% and the cell count (WM115) was 42.3%. For the same compound, the cell count (WM1716) was 80.9%, the cell count (WM1745) was 71.2% and the cell count (WM3526) was 24.6%. For the same compound, the cell count (WM3619) was 35.8% and the cell count (WM451Lu) was 77.6%.
